Test results: publication PMC4336329 (PLoS ONE, 2015)
Among all 310,000 compounds or so, about 14,000 (4.5%) showed an effect of 50% or more. The effect is printed as a negative number. Some of the results follow.

What follows are compounds tested against human ether-à-go-go-related gene (hERG) potassium channel (human, UniProt Q12809) (assay: primary screen, population patch clamp on CHO cells stably expressing hERG).
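Also: peak tail current of the secondary pulse compared with the same well before compound.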

Sequence of human ether-à-go-go-related gene (hERG) potassium channel (Q12809 whole entry, looked up): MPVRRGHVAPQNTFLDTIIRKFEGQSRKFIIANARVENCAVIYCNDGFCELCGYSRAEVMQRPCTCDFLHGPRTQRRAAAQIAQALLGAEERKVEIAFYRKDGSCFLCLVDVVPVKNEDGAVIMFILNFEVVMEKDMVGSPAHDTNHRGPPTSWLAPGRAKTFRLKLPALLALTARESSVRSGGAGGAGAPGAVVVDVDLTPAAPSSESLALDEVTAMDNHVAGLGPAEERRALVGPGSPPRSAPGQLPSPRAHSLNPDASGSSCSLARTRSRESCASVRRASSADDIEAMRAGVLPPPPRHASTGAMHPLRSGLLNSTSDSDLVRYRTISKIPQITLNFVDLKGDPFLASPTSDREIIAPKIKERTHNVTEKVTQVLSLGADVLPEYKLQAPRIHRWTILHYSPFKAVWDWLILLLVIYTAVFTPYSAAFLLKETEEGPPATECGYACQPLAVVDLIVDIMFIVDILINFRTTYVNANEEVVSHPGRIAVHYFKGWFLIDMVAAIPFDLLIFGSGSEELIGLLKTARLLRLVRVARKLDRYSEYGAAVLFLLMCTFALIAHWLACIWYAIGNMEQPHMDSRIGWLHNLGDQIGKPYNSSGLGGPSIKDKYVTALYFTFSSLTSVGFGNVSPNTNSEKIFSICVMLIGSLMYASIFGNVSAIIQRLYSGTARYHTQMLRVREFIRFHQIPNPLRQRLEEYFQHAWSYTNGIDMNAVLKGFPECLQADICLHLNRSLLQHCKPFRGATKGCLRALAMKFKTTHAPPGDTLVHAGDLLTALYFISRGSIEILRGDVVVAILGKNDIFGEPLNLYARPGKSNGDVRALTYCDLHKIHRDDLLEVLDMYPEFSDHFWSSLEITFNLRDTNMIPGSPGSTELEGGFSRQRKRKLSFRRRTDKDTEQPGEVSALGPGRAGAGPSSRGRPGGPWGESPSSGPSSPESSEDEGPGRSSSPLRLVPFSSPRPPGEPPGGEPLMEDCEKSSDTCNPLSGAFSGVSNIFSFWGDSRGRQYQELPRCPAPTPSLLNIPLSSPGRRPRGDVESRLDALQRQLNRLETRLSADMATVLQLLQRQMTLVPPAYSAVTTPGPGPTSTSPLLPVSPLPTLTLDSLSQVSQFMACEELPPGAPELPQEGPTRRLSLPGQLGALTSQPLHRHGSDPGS

| Structure (SMILES) | hERG current change (%, negative = inhibition) at 10uM [%] |
| --- | --- |
| O=C(CCNc1n[nH]c(=O)[nH]c1=O)N/N=C/c1ccc(Cl)cc1 | 18.4 |
| CSc1ccccc1C(=O)Nc1ccc(S(=O)(=O)NC2=NCCCCC2)cc1 | 7.13 |
| CCn1c(SCC(=O)N2CCCC2)nnc1-c1ccco1 | 8.9 |
| O=C(O)CCS(=O)(=O)c1ccccc1Cl | 11 |
| CCOc1ccc(S(=O)(=O)N(CC(=O)N2CCc3ccccc32)Cc2ccco2)cc1 | 11 |
| Cc1cc(SCc2ccc(Cl)cc2Cl)nc(=O)[nH]1 | 3.63 |
| COc1ccccc1NC(=O)c1ccc([N+](=O)[O-])cc1[N+](=O)[O-] | -19.6 |
| C/C(=N/NC(=O)c1ccc(-c2ccccc2)cc1)c1cc(O)cc(O)c1 | 12 |
| N=c1c(-c2nc3ccccc3[nH]2)cc(C(=O)c2ccco2)nn1-c1ccccc1 | -59.5 |
| CS(=O)(=O)N1CCCC(C(=O)N2CCN(c3cccc(Cl)c3)CC2)C1 (stereo not shown) | -9.27 |
| O=C(O)c1ccc(C(=O)O)c(C(=O)c2ccccc2)c1 | 1.72 |
| COc1cccc(C(NC(=O)c2ccccc2F)NC(=O)c2ccccc2F)c1 | -11.1 |
| COCCn1c(C)nc2oc3ccc(Br)cc3c(=O)c2c1=O | -42.7 |
| O=C(c1nc2ccccc2s1)N1CCSCC1 | -8.27 |
| CCCCn1c(N)c(N(CCOC)C(=O)c2cc(Cl)nc3ccccc23)c(=O)[nH]c1=O | 6.3 |
| CN1CCN(CCCNC(=O)c2ccc3c(c2)N(Cc2ccc(F)cc2)CCS3)CC1 | -26.7 |
| Cc1nc2ccccc2n1CC(O)COc1ccccc1Cl (stereo not shown) | -15 |
| CN1CC(=O)N2C(c3cccc([N+](=O)[O-])c3)c3[nH]c4ccccc4c3C[C@H]2C1=O (stereo partly shown) | 11.4 |
| Br.CCCn1c(=N)n(CC(=O)OCC)c2ccccc21 | -4.66 |
| COCCN1CCc2c(C)nc3c(-c4ccc(OC)c(OC)c4)cnn3c21 | -4.31 |
| CCOC(=O)N1CCN(C(=O)COC(=O)Cc2ccc(Cl)cc2)CC1 | -14.3 |
| CC(C)C(=O)Nc1cccc(NC(=S)NC(=O)c2ccc3c(c2)OCO3)c1 | 17.4 |
| O=C(NC(=S)NC1C2CC3CC(C2)CC1C3)c1ccccc1 (stereo not shown) | 5.43 |

| Structure (SMILES) | hERG current change (%, negative = inhibition) at 10uM [%] |
| --- | --- |
| N#Cc1ccc(COC(=O)CCc2c[nH]c3ccccc23)cc1 | -20.5 |
| COc1ccc(C(=O)/C=C2/C(=O)Nc3ccccc32)c(OC)c1 | 12.7 |
| N#Cc1cc(-c2ccccc2)nc(N2CCNCC2)n1 | -11.3 |
| COc1cc(/C=C(\C#N)c2nc3ccccc3o2)ccc1O | -4.04 |
| Cc1csc(NC(=O)Cn2cnnn2)n1 | 9.19 |
| CN(C)C(CNC(=S)Nc1ccccc1Cl)c1cccnc1 (stereo not shown) | 3.25 |
| O=C1c2ccccc2CN2C(=O)c3ccccc3CN12 | 29.6 |
| Cc1ccc(C(=O)C[n+]2cc(Br)cc(Br)c2)cc1[N+](=O)[O-].[Br-] | -23.2 |
| CCOC1(OCC)C(c2ccc(N)cc2)C(C#N)(C#N)C1(OCC)OCC (stereo not shown) | 16.6 |
| O=C1/C(=C/c2ccc(N3CCOCC3)o2)SC(=Nc2ccccc2)N1CCc1c[nH]c2ccccc12 | 3.77 |
| COC(=O)c1ccsc1NC(=O)C1=COCCO1 | 7.95 |
| COc1cccc(C(=O)N2CCC(n3nccc3NC(=O)C3CCOC3)CC2)c1 (stereo not shown) | -13 |
| c1coc(CNC2CCCCCCC2)c1 | 10.1 |
| Cc1cc(NC(=O)c2cccc(N3C(=O)CCC3=O)c2)no1 | -23.9 |
| O=C(Oc1coc(CSc2ncccn2)cc1=O)c1ccc(Br)o1 | -13.8 |
| CC(C)CSc1nc2ccccc2n1CC(N)=O | 5.81 |
| Cc1c(-n2cc(C(=O)c3cc(F)ccc3O)cc(C#N)c2=O)c(=O)n(-c2ccccc2)n1C | 13.4 |
| CC(=O)Nc1nnc(-c2ccco2)o1 | 29 |
| O=C(COc1ccc2c(c1)OCO2)Nc1ccccc1C(F)(F)F | -11.9 |
| COc1cc(NC(=O)c2cc(-c3ccc4c(c3)OCO4)on2)cc(OC)c1OC | 1.46 |
| CCC(=O)Nc1cc(C(=O)OCC(=O)c2ccccc2)ccc1C | 2.56 |
| C=CCOc1ccccc1CN1CCC(CO)(CCOc2ccccc2)CC1 | -81.9 |
| Cc1ccc2c(c1)nc(NCCCO)n2C | -3.54 |

| Structure (SMILES) | hERG current change (%, negative = inhibition) at 10uM [%] |
| --- | --- |
| COc1ccc(NC(=O)CSc2ccc(-c3ccco3)nn2)cc1OC | -12.2 |
| Nc1nncn1C(=O)CCc1ccccc1 | -3.41 |
| O=c1c2c3c(sc2nc(N2CCNCC2)n1-c1cccc(Cl)c1)CCCCC3 | -37.9 |
| Cc1cc(Br)ccc1NC(=O)C(C)c1ccc([N+](=O)[O-])cc1 (stereo not shown) | -70.7 |
| CCC(OC(=O)c1cccs1)C(=O)NCc1ccco1 (stereo not shown) | 15.9 |
| CCOC(=O)Cc1csc(NC(=O)c2cc(-c3ccncc3)nc3ccccc23)n1 | 11.9 |
| CCOCCCNC(=O)C(c1ccc(C)cc1)N1CCOCC1 (stereo not shown) | 4.95 |
| Cn1nnnc1SCC(=O)NCCc1ccc(Cl)cc1 | -0.328 |
| CCN(CC(=O)Nc1ccc2c(c1)OCCO2)C(=O)C1CCCCC1 | -2.6 |
| Cc1ccccc1NC(=S)N(CCc1c(C)[nH]c2ccc(F)cc12)Cc1cccnc1 | 24.2 |
| Br.Nc1ccc(OCC(O)C[n+]2ccc(CCS(=O)(=O)[O-])cc2)cc1 (stereo not shown) | 18.4 |
| COc1cc(-c2nnc(NC(=O)CCS(=O)(=O)c3ccccc3)o2)cc(OC)c1OC | 8.33 |
| Cc1ccc2cc(C#N)c(N3CCCN(C(=O)C4CCCO4)CC3)nc2c1 (stereo not shown) | -36 |
| C[C@]12C[C@H](O)[C@H]3[C@@H](CCC4=CC(=O)CC[C@@]43C)[C@@H]1CC[C@@H]2C(=O)CO | 0.529 |
| COc1ccc(Nc2ncnc3sc(C)cc23)c(OC)c1.Cl | 7.32 |
| CCCc1cc2c(=O)c(-c3ccccn3)c(C)oc2cc1O | 0.616 |
| CCn1c(COc2ccccc2OC)nnc1SCC(=O)NC1CCCC1 | -4.79 |
| CCOC(=O)CCC(=O)N1CCOCCN(C(=O)CCC(=O)OCC)CCOCC1 | 14.3 |
| CC(C)(C)n1cnc2cc(NS(=O)(=O)c3ccccc3)ccc21 | -18.6 |
| CCOc1ccccc1NC(=O)C(c1ccccc1)N1CCN(C(=O)c2ccco2)CC1 (stereo not shown) | -57.7 |
| CC(C)C(c1nnnn1C1CCCCC1)N1CCOCC1 (stereo not shown) | 1.7 |
| COc1ccc(-c2cc(C(F)(F)F)nc(SCC(=O)N3CCOCC3)n2)cc1OC | -14.5 |
| COc1ccc(CCC(=O)NNC(=O)c2cc(Cl)ccc2OC)cc1OC | 0.534 |

| Structure (SMILES) | hERG current change (%, negative = inhibition) at 10uM [%] |
| --- | --- |
| COCC(COS(N)(=O)=O)C(C)C (stereo not shown) | 9.44 |
| O=C(Nc1ccc(Cl)cc1C(=O)NCC1CCCO1)c1ccc(Cl)cc1Cl (stereo not shown) | -10.2 |
| Cc1cccc(C(=O)NCC(=O)NNC(=O)c2ccccc2O)c1 | -1.97 |
| COc1cc(/C=N/NC2=NCCCCC2)ccc1O.Cl | 4.28 |
| O=C(NCCCCNC(=O)c1ccccc1Cl)c1ccccc1Cl | 10.4 |
| CCC(C)Sc1cccc(-c2nc3ccc(Cl)cn3c2NCc2ccccc2)c1.O=C(O)C(F)(F)F (stereo not shown) | 8.38 |
| CCn1c(SCC(=O)NCC2CCCO2)nc2c([nH]c3ccccc32)c1=O (stereo not shown) | -1.03 |
| O=C(O)CC1SC(=Nc2cccc(C(F)(F)F)c2)NC1=O (stereo not shown) | 5.13 |
| O=C(COC(=O)c1cccs1)c1ccccc1 | 5.96 |
| Cc1ccccc1NCCC(=O)Nc1ccc(Cl)cc1 | -9.8 |
| COC(=O)[C@H](CCSC)NC(=O)N1CCC(C)CC1 | -8.94 |
| COc1ccc(CNC(=O)c2cnc3cc(C)ccn3c2=O)cc1 | -8.79 |
| O=C(CC1NCCNC1=O)Nc1ccc(Oc2ccccc2)cc1 (stereo not shown) | 25.6 |
| CC(C)CCNC(=O)C1CCN(S(=O)(=O)c2ccc(-n3cnnn3)cc2)CC1 | -37.6 |
| COc1cc(N(C(=O)Cc2cccs2)C(C(=O)NC2CCCCC2)c2cccc(OC)c2OC)ccc1-n1cnnn1 (stereo not shown) | -8.38 |
| CCOC(=O)C1=C(Cn2cnc3ccccc32)NC(=O)NC1c1ccc(OC)cc1 (stereo not shown) | -19.7 |
| Cl.OC(CNCC#Cc1ccccc1)c1ccccc1 (stereo not shown) | -0.364 |
| Cc1cc(=O)[nH]c(-n2[nH]c(C)cc2=O)n1 | -1.59 |
| CCN1CCc2nc(NC(=O)c3ccc(S(=O)(=O)N(C)C)cc3)sc2C1 | 22.4 |
| Cc1ccc(-c2nnc(-c3ccccc3)c(-c3ccccc3)n2)cc1 | 4.51 |
| CC(C)(C)OC(=O)N1CCC(CNC(=O)c2cccs2)CC1 | 10.9 |
| CCN1C(=O)N[C@@H](c2cccc(C(F)(F)F)c2)[C@@H](C(=O)OC)[C@H]1C | -19 |
